In the supplement of paper PMC10126150:
Sequences with one replicate were seen in a single cluster, so their values are uncertain.

System: ATP
Test: switch fluorescence ratio, 500 uM ATP over buffer (Cy3 cluster intensity, sum of 5 cycles each) (fold (ratio)); higher = stronger signal-on switching upon ATP binding; sequences stand for … in TCGTCGGCAGCGTCAGATGTGTATAAGAGACAGTTTTTTTTTTTTTTTTTTTTTTTTT…TC
Conditions: aptamer strand: ATP DNA aptamer (quencher-CACCTGGGGGAGTATTGCGGAGGAAGG + anchor), 100 nM annealed; ATP concentration: 500 uM; one replicate
Summary of the method: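 The fluorescence ratio divides summed target-cycle Cy3 intensity by summed buffer-cycle Cy3 intensity for each cluster and is averaged per switch-domain sequence. Cy3-labelled switching-strand clusters on a modified Illumina MiSeq flow-cell were annealed to 100 nM quencher-labelled ATP aptamer, then imaged in selection buffer and again after 15 min with 500 uM ATP at 22 °C. Five such cycles were run, with NaOH stripping and re-annealing between them, and clusters outside 100-1000 RFU were excluded.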
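Also: ATP exposure 15 min at 22 °C before imaging.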

## ACCCATTCAC
  switch fluorescence ratio: 1.17

## GAATTCGCCG
  switch fluorescence ratio: 0.976

## ATTCAAGTGG
  switch fluorescence ratio: 1.03

## ATTTCAGGTT
  switch fluorescence ratio: 0.976

## CGTTGGTAAC
  switch fluorescence ratio: 1.02

## CATGCCGGCG
  switch fluorescence ratio: 0.966

## GCTTACTATA
  switch fluorescence ratio: 1.08

## GCCCTCGACT
  switch fluorescence ratio: 1.02

## AAATGGTTAC
  switch fluorescence ratio: 1.03

## AGGGGAGCAA
  switch fluorescence ratio: 1.45

## TCCCATCTCT
  switch fluorescence ratio: 1.04

## GACATGTCGA
  switch fluorescence ratio: 0.957

## GCCCGAGGAT
  switch fluorescence ratio: 1.04

## TATAGTCCTG
  switch fluorescence ratio: 1.01

## TATGATTATA
  switch fluorescence ratio: 1

## GCCTACTACA
  switch fluorescence ratio: 1.05

## ATTGGTTGGA
  switch fluorescence ratio: 0.989

## CTCGGTCCTA
  switch fluorescence ratio: 1.02

## TAGTTGTACG
  switch fluorescence ratio: 1.14

## CGTTAATATT
  switch fluorescence ratio: 0.988

## GGGTCCTCGG
  switch fluorescence ratio: 0.977

## CGTCAAAGA
  switch fluorescence ratio: 1.03

## TATAATGGA
  switch fluorescence ratio: 0.993

## GGTGTGCCCG
  switch fluorescence ratio: 0.946

## TAAATTCGGT
  switch fluorescence ratio: 0.979

## AGTAACTCAG
  switch fluorescence ratio: 1.01

## TGCTTCAACC
  switch fluorescence ratio: 0.94

## ATAAAGCGCG
  switch fluorescence ratio: 1.1

## TGAGGATGGC
  switch fluorescence ratio: 0.994

## CCAGGTCTAG
  switch fluorescence ratio: 1.08

## AATTACGAGA
  switch fluorescence ratio: 1.05

## ACTTTGAAGG
  switch fluorescence ratio: 0.976

## AAGACGCTAC
  switch fluorescence ratio: 3.6

## TAAGATAATT
  switch fluorescence ratio: 1.04

## TCCGTCTATT
  switch fluorescence ratio: 1.09

## TATGGCTGA
  switch fluorescence ratio: 1.01

## TCGCGCTAGT
  switch fluorescence ratio: 0.994

## TATCGAAATG
  switch fluorescence ratio: 1.01

## AGGGTGAACG
  switch fluorescence ratio: 0.961

## GGGTGTCT
  switch fluorescence ratio: 1.05

## AAAGCACAGT
  switch fluorescence ratio: 1.08

## ACGTACGGTA
  switch fluorescence ratio: 1.4

## GATCGCGCCT
  switch fluorescence ratio: 1.04

## TATTTCAGGT
  switch fluorescence ratio: 0.965

## CGGGAGACCT
  switch fluorescence ratio: 1.14

## AAAAGATACT
  switch fluorescence ratio: 1.06

## AGTTTCTTAA
  switch fluorescence ratio: 0.956

## GGGGTCATCG
  switch fluorescence ratio: 1.01

## ATGGTAAAGT
  switch fluorescence ratio: 0.966

## GGGCTCGAGT
  switch fluorescence ratio: 1

## CGCAGTGTAT
  switch fluorescence ratio: 1.08

## AAATTGTGT
  switch fluorescence ratio: 0.969

## ACTTCAGTGC
  switch fluorescence ratio: 1.01

## CCATGGTGG
  switch fluorescence ratio: 0.98

## ACTCTGGAA
  switch fluorescence ratio: 1.37

## CTGTTCATGT
  switch fluorescence ratio: 0.994

## TCGAGACCGG
  switch fluorescence ratio: 1.11

## CGAGGTGGCA
  switch fluorescence ratio: 1.02

## CTCATAAGCG
  switch fluorescence ratio: 0.981

## TCTTTGACA
  switch fluorescence ratio: 1.06

## AGGTCCGGT
  switch fluorescence ratio: 0.989

## GACGAGGAGT
  switch fluorescence ratio: 0.99

## TACTAGCTCC
  switch fluorescence ratio: 0.986

## TGTTGAGCGA
  switch fluorescence ratio: 1.05

## ACCGTTACGT
  switch fluorescence ratio: 1.25

## GGGCCAGG
  switch fluorescence ratio: 1.07

## TCAGGAAGTC
  switch fluorescence ratio: 2.02

## TCTACTAAGA
  switch fluorescence ratio: 1.03

## AAGTGTGGA
  switch fluorescence ratio: 1.07

## CCTACACTAA
  switch fluorescence ratio: 1.59

## CTGTGACGTC
  switch fluorescence ratio: 1.04

## ACGATGGTT
  switch fluorescence ratio: 0.995

## TCCCCGGTTT
  switch fluorescence ratio: 1.45

## TAGGACTTTT
  switch fluorescence ratio: 1.02

## CACCATGGTG
  switch fluorescence ratio: 1.13

## GATAAGAGGG
  switch fluorescence ratio: 0.968

## CGAGTTCAAA
  switch fluorescence ratio: 0.934

## GGTATTGCG
  switch fluorescence ratio: 1.02

## CCATGATGTC
  switch fluorescence ratio: 1.03

## CCCATTGCGG
  switch fluorescence ratio: 0.988

## AGGGGTCCAC
  switch fluorescence ratio: 0.995

## GCTTCTGATC
  switch fluorescence ratio: 1.01

## GGGTAATACG
  switch fluorescence ratio: 1.1

## GGTTGGTGTC
  switch fluorescence ratio: 0.98

## AAGAGTGCAA
  switch fluorescence ratio: 1.03

## AATATGGCTT
  switch fluorescence ratio: 1.03

## AGATAGCCTA
  switch fluorescence ratio: 0.982

## GGTGAGGTGT
  switch fluorescence ratio: 1.07

## AACGAAACGT
  switch fluorescence ratio: 1.05

## GTTTTCC
  switch fluorescence ratio: 1.03

## GGTTTACGTT
  switch fluorescence ratio: 1.01

## TCTCTGATTG
  switch fluorescence ratio: 1.02

## GACAGAGCCG
  switch fluorescence ratio: 1.01

## TTGTTTCTAC
  switch fluorescence ratio: 1.04

## TGCGATAGCG
  switch fluorescence ratio: 0.956

## CCCAACGACA
  switch fluorescence ratio: 1.21

## CCCTTCGGTC
  switch fluorescence ratio: 1.11

## GGGATAGGAC
  switch fluorescence ratio: 1.02

## AAATGTTGG
  switch fluorescence ratio: 0.982

## CTCAGATACG
  switch fluorescence ratio: 1.11

## CTAATGTG
  switch fluorescence ratio: 0.946

## ATTTTTGCGG
  switch fluorescence ratio: 0.984

## CGCTGCATTG
  switch fluorescence ratio: 1.23

## GAGTGGGCTA
  switch fluorescence ratio: 1.01

## TGCATACAAA
  switch fluorescence ratio: 0.976

## GCAGGCCAGG
  switch fluorescence ratio: 1.23

## ATAGCTCTGC
  switch fluorescence ratio: 1.04

## GGACAGCGTC
  switch fluorescence ratio: 0.971

## GAGCCTTCAT
  switch fluorescence ratio: 1.08

## CCGAA
  switch fluorescence ratio: 1.01

## GTTTGTTCCG
  switch fluorescence ratio: 1.02

## CCCGCCGCGG
  switch fluorescence ratio: 1.97

## AGCCGAAGTT
  switch fluorescence ratio: 1.03

## TGTTGTGGGC
  switch fluorescence ratio: 0.998

## TTCCTTTGCA
  switch fluorescence ratio: 4.59

## ATAGTGTATG
  switch fluorescence ratio: 0.98

## TTCGCTTCCG
  switch fluorescence ratio: 1.09

## CGTAGTGTTG
  switch fluorescence ratio: 0.999

## AGACTCGTGC
  switch fluorescence ratio: 1

## CGATAAAATT
  switch fluorescence ratio: 1.01

## CGGCCGTTCA
  switch fluorescence ratio: 1.02

## TTCCAGAAGC
  switch fluorescence ratio: 1.06

## CCTGGTGCTT
  switch fluorescence ratio: 1.53

## TATTCCTCCG
  switch fluorescence ratio: 1.6

## AGAAATAGTG
  switch fluorescence ratio: 1

## AGAGTGCTTT
  switch fluorescence ratio: 0.977

## CGGTTGCCT
  switch fluorescence ratio: 0.972

## CATAAATCTC
  switch fluorescence ratio: 1.03

## ACCTTTGCTT
  switch fluorescence ratio: 1.05

## TGGGTTAGGA
  switch fluorescence ratio: 1.04

## GAAACAAGGT
  switch fluorescence ratio: 0.997

## GCATTGTCTG
  switch fluorescence ratio: 0.984

## CAGGATGCTT
  switch fluorescence ratio: 0.984

## AGAAGCATCC
  switch fluorescence ratio: 1.24

## TGTGGTAGAG
  switch fluorescence ratio: 0.947

## TCGCTAACCC
  switch fluorescence ratio: 1.3

## ACTTTCGTAC
  switch fluorescence ratio: 1.09

## ATATGCGAGC
  switch fluorescence ratio: 1.02

## TGCGGTGCCT
  switch fluorescence ratio: 0.962

## TTATCGTCTC
  switch fluorescence ratio: 1.04

## ACTACATCTA
  switch fluorescence ratio: 1.06

## GTAGCGGTCG
  switch fluorescence ratio: 1.02

## ATAGGGAGCG
  switch fluorescence ratio: 0.971

## AAATCAAGAT
  switch fluorescence ratio: 1.01

## GGGATACGG
  switch fluorescence ratio: 1.11

## GACGCGGTTG
  switch fluorescence ratio: 1.04

## ACCGCGTAAG
  switch fluorescence ratio: 1.01

## ATCGAGTACC
  switch fluorescence ratio: 1.02

## ATTGTAGTCC
  switch fluorescence ratio: 0.994

## AGAAAAGCG
  switch fluorescence ratio: 1.04

## TTCCACGCCC
  switch fluorescence ratio: 1.43

## GGGAACGTAA
  switch fluorescence ratio: 1.13

## GACCAGGGA
  switch fluorescence ratio: 1.09

## GACAACGTGA
  switch fluorescence ratio: 1.19

## TGAACTACTA
  switch fluorescence ratio: 1.07

## TTTCGCGGC
  switch fluorescence ratio: 1.59

## GACTAAGACG
  switch fluorescence ratio: 0.966

## TCCGTGGACG
  switch fluorescence ratio: 0.939
